Results on 92 compounds are retold here after PubChem BioAssay AID360 (National Center for Advancing Translational Sciences (NCATS), 2006).

Screen size: about 48,000 compounds; about 550 (1.1%) were called active. Another 4% or so got no clear call; they are omitted. Cut-off read from the data, not from the text of the source: active = potency below about 15 µM; inconclusive = mostly about 16 µM to 33 µM; inactive = weaker than that. The list shows a part of the results.
Potency is the fitted concentration of half-maximal effect.

Sequence of UniProt P04062 (P04062 whole entry, looked up): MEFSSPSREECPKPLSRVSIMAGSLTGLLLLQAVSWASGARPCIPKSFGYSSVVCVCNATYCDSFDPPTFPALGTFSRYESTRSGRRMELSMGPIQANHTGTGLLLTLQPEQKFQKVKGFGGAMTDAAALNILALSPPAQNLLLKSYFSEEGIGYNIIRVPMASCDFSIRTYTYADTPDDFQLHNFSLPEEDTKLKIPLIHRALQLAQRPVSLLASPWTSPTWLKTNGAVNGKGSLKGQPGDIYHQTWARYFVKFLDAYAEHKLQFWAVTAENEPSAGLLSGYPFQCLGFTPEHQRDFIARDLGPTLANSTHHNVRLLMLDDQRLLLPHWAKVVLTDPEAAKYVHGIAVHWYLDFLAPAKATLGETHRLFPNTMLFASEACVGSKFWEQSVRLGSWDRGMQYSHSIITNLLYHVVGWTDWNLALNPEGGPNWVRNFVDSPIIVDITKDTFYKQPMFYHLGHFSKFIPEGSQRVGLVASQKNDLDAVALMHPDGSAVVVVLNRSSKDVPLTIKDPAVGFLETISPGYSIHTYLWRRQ

This test deals with Lysosomal acid glucosylceramidase (Homo sapiens) (UniProt P04062). Briefly: Glucocerebrosidase.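 Note: the screen sought inhibitors.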 Particulars: purified enzyme, resorufin glucoside fluorescence (screen aimed at inhibitors), 20 min. Summed up:
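Wild-type enzyme at 0.2 nM final in 50mM citric acid/KH2PO4, 10mM sodium taurocholate, 0.01% tween-20, pH 5.9, with resorufin beta-D-glucopyranoside at 30 uM final. Compounds titrated, 20 min at RT, red fluorescence read; AC50 from titration.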
Regarding `CC(C)Oc1ccc(NC(=O)c2ccncc2)cc1`, the Potency is active: 7.88 µM.
`O=C(C1CCN(c2ccc(N3CCOCC3)nn2)CC1)N1CCN(c2ccc(F)cc2)CC1`: the Potency was inactive: > 76.9 µM.
On to `Cc1ccc(Cn2nnc3c(=O)[nH]c(C4CCN(C(=O)c5cccs5)CC4)nc32)cc1`, for which the Potency result is “inactive”.
In the case of `CCOC(=O)N1CCC(N2Cc3cccc(C(=O)NCc4ccc(OC)cc4)c3C2=O)CC1`, the Potency was inactive: > 76.9 µM.
As to `COC(=O)[C@H](C)NC(=O)Nc1ccc(OC)c(OC)c1`, the Potency was inactive: > 76.9 µM.
Turning to `Cn1nnnc1SCC(=O)NCCc1ccc(Cl)cc1`, the Potency is inactive: > 76.9 µM.
Take `COc1ccc(S(=O)(=O)CCC(=O)NCCc2ccc(S(N)(=O)=O)cc2)cc1`: the Potency was inactive: > 76.9 µM.
With `CCOC(=O)C(C(=O)OCC)C1N=C(N)N=C2Oc3ccccc3N21` (configuration not stated), the Potency is inactive: > 76.9 µM.
For the compound `Cc1ccc(-c2noc(C3CCCN(C(=O)c4c(F)cccc4F)C3)n2)cc1` (configuration not stated), the Potency was inactive: > 76.9 µM.
Consider `CCOC(=O)Cn1cc(C(=O)OC)c2ccccc21`, for which the Potency is inactive: > 76.9 µM.
The result for `COc1ccc(C(=O)N2CCC(C(=O)NCc3ccccn3)CC2)cc1` reads inactive: > 76.9 µM; that for `CC(C)(C)n1ncc2c(=O)n(CC(=O)Nc3ccc(Cl)cc3)cnc21`, inactive: > 76.9 µM; that for `Cc1ccc(C(=O)CC2(O)C(=O)N(Cc3ccccc3)c3ccccc32)o1` (configuration not stated), inactive: > 76.9 µM.
On to `O=C(c1cccs1)N1CCCC(c2nc(-c3ccc(F)cc3)no2)C1` (configuration not stated), for which the Potency was inactive: > 76.9 µM.
Consider `CC(C)C1N(S(=O)(=O)c2ccccc2)CCN1S(=O)(=O)c1ccccc1`, for which the Potency is inactive: > 76.9 µM.
Turning to `O=C(Cn1c(=O)sc2ccccc21)NCc1ccco1`, the Potency was inactive: > 76.9 µM.
Next, `Cc1cnn(-c2nc(-c3cccs3)cc(C(F)(F)F)n2)c1`: inactive: > 76.9 µM.
The result for `CCOC(=O)/C(C(N)=NCc1ccco1)=C(/O)c1ccccc1` reads inactive: > 76.9 µM.
For the compound `CCOC(=O)N1CCN(C(=O)CSc2nnc(CNC(=O)c3c(F)cccc3Cl)o2)CC1`, the Potency was inactive: > 76.9 µM.
`COc1cc2c(cc1OC)C(C(=O)O)C(c1ccc(C)o1)N(C)C2=O` (configuration not stated): the Potency was inactive: > 76.9 µM.
For `Cc1ccc(NC(=O)c2ccc(S(=O)(=O)NCC3CCCO3)cc2)cc1` (configuration not stated), the Potency is inactive: > 76.9 µM.
For `CCCn1c(=O)c2ccccc2n2c(SCC(=O)c3ccccc3)nnc12`, the Potency is inactive: > 76.9 µM.
In the case of `Cc1nc2ccccc2c(=O)n1/N=C/c1ccc(O)cc1`, the Potency was inactive: > 76.9 µM.
Next, `CCC(C)NC(=O)C1CC(c2cccc(OC)c2)=NO1` (configuration not stated): inactive: > 76.9 µM.
For the compound `CCOC(=O)N1CCN(Cc2nc3c(c(=O)n(C)c(=O)n3C)n2Cc2cccc(C)c2)CC1`, the Potency is inactive: > 76.9 µM.
`COc1ccc(CNc2nc3nc(C)c(Cl)c(=O)n3[nH]2)cc1OC`: the Potency was inactive: > 76.9 µM.
For `Cc1cccc(NC(=O)c2ccccc2OCC(=O)N2CCOCC2)c1C`, the Potency was inactive: > 76.9 µM.
Take `CCOC(=O)C(NC(=O)Nc1cccc(C)n1)(OCC(F)(F)F)C(F)(F)F` (configuration not stated): the Potency is inactive: > 76.9 µM.
`Cc1ccc2cc(CN(Cc3cccs3)Cc3nnnn3C(C)(C)C)c3nnnn3c2c1`: the Potency was inactive: > 76.9 µM.
Next, `Cc1csc(SCCN2C(=O)c3ccccc3C2=O)n1`: inactive: > 76.9 µM; `COC(=O)Cn1c(CN(Cc2ccccc2)Cc2ccccc2)nc2c1c(=O)[nH]c(=O)n2C`: inactive: > 76.9 µM; `O=S(=O)(NCCc1ccccc1)c1cccc(S(=O)(=O)N2CCOCC2)c1`: inactive: > 76.9 µM.
Turning to `COc1ccccc1-n1c(SCC(N)=O)nnc1-c1ccccc1`, the Potency is inactive: > 76.9 µM.
`COc1ccc(-c2nc3cc(NC(=O)c4ccc5c(c4)OCO5)ccc3o2)cc1`: the Potency was inactive: > 76.9 µM.
As to `Cc1cccc(NC(=O)CCn2nc(C)cc2C)c1`, the Potency is inactive: > 76.9 µM.
The result for `CCc1ccccc1-n1c(-c2ccncc2)n[nH]c1=S` reads inactive: > 76.9 µM.
As to `O=C(COc1ccc(S(=O)(=O)Nc2ccccc2)cc1)N1CCOCC1`, the Potency was inactive: > 76.9 µM.
As for `CCCNC(=O)c1cccc(COCC(F)(F)C(F)F)c1`, the Potency is inactive: > 76.9 µM.
On to `CCSc1ncc(C#N)c(=O)[nH]1`, for which the Potency was inactive: > 76.9 µM.
Consider `Nc1nonc1-c1nc2ccccc2n1Cc1ccc(F)cc1Cl`, for which the Potency is inactive: > 76.9 µM.
Turning to `Cc1ccc(C(=O)CC2(O)C(=O)N(CCc3ccccc3)c3ccc(Br)cc32)o1` (configuration not stated), the Potency is inactive: > 76.9 µM.
For the compound `CCOc1ccc(C(=O)CSc2nnc(N)s2)cc1`, the Potency is inactive: > 76.9 µM.
Consider `CC(=O)Nc1ccc2c(c1)CCC2=O`, for which the Potency was inactive: > 76.9 µM.
Take `CCOC(=O)c1c(C)[nH]c(NC(=O)N2CCOCC2)c1C`: the Potency was inactive: > 76.9 µM.
Next, `Cc1ccc(-c2ccc(=O)n(CC(=O)NCCN3C(C)CCCC3C)n2)cc1` (configuration not stated): inactive: > 76.9 µM.
With `Cc1nc2cc(N3CCCCC3)c(NC(=O)c3cccnc3)cc2c(=O)n1Cc1ccccc1`, the Potency was inactive: > 76.9 µM.
As for `CC(=O)c1cnc(N2CCCCC2)nc1C`, the Potency was inactive: > 76.9 µM.
With `CCc1ccc2[nH]c(=O)c(CN(CCCN3CCOCC3)C(=O)Nc3ccc(F)cc3)cc2c1`, the Potency was inactive: > 76.9 µM.
The result for `COc1ccc(CCNc2oc(-c3ccc(OC)c(OC)c3)nc2C#N)cc1` reads inactive: > 76.9 µM; that for `Cc1ccc2ncnc(NCCCN3CCOCC3)c2c1`, inactive: > 76.9 µM; that for `O=C(NCc1cccnc1)NC1CCCN1S(=O)(=O)c1ccc(Cl)cc1` (configuration not stated), inactive: > 76.9 µM.
Regarding `CCNc1nc(N)nc(Oc2ccc(OCCOc3ccccc3)nn2)n1`, the Potency is inactive: > 76.9 µM.
Take `COC(=O)c1ccccc1NC(=O)Nc1cc(C)cc(C)n1`: the Potency was inactive: > 76.9 µM.
As to `Cc1cccc(N2CCN(C(=O)c3ccncc3)CC2C)c1` (configuration not stated), the Potency is inactive: > 76.9 µM.
`CN(C)c1nccc(Nc2ccccc2)c1C#N`: the Potency is inactive: > 76.9 µM.
The result for `CCCCCOC(=O)c1ccccc1C(=O)O` reads inactive: > 76.9 µM; that for `O=C(C1CCC1)N1CCc2cc(S(=O)(=O)NCc3cccnc3)ccc21`, inactive: > 76.9 µM; that for `COCCNC(=O)c1noc2c1CCc1cc(OC)ccc1-2`, inactive: > 76.9 µM.
Regarding `O=S(=O)(c1ccc(S(=O)(=O)N2CCCN(Cc3ccccc3)C2)cc1)N1CCCCCC1`, the Potency is inactive: > 76.9 µM.
Next, `COc1cc(C)nc(NS(=O)(=O)c2ccccc2)n1`: inactive: > 76.9 µM; `O=C(c1ccccc1)c1cncc(Br)c1`: inactive: > 76.9 µM; `COc1ccccc1OCCOCCn1cnc2ccccc2c1=O`: inactive: > 76.9 µM.
The result for `CCN(Cc1cc2ccccc2[nH]c1=O)C(=O)C1CCCCC1` reads inactive: > 76.9 µM.
On to `CCCn1c(Nc2nc3ccccc3n2C)nc2ccccc21`, for which the Potency is inactive: > 76.9 µM.
Next, `CCC1Oc2ccccc2N(CC(=O)Nc2ccccc2OC)C1=O` (configuration not stated): inactive: > 76.9 µM; `COC(=O)C1(C)NC(c2cccs2)C2C(=O)N(c3ccc(F)cc3)C(=O)C21` (configuration not stated): inactive: > 76.9 µM; `O=C(CCN1C(=O)C2C3C=CC(C3)C2C1=O)NC1CCCc2ccccc21` (configuration not stated): inactive: > 76.9 µM.
Consider `O=C(Cn1cnc2ccccc2c1=O)Nc1ccc(-c2nnc3n2CCCCC3)cc1`, for which the Potency is inactive: > 76.9 µM.
In the case of `CC(C)CNS(=O)(=O)c1ccc(CCC(=O)O)cc1`, the Potency is inactive: > 76.9 µM.
In the case of `CC(C)(C)c1ccc(-c2noc(CCC(N)=O)n2)cc1`, the Potency is inactive: > 76.9 µM.
Take `CCCOc1ccc(N2C(=O)CC(NCc3ccncc3)C2=O)cc1` (configuration not stated): the Potency is inactive: > 76.9 µM.
Next, `CCOC(=O)C1CCN(C(=O)C2c3ccccc3C(=O)N(C)C2c2ccc(OC)cc2)CC1` (configuration not stated): inactive: > 76.9 µM.
As for `COc1ccccc1-c1nnc2sc(COc3ccc(F)cc3)nn12`, the Potency is inactive: > 76.9 µM.
Next, `C=C1N(CCCCCC(=O)O)C(=O)OC12CCCCC2`: inactive: > 76.9 µM.
With `COC(=O)Cc1[nH]nc2c1C1(C(=O)N(Cc3ccccc3)c3ccccc31)C(C#N)=C(N)O2` (configuration not stated), the Potency was inactive: > 76.9 µM.
With `CCc1cc(=O)oc2cc(OC(C)=O)cc(OC(C)=O)c12`, the Potency was inactive: > 76.9 µM.
Turning to `Cc1nn(-c2ccccc2)c(C)c1NC(=O)c1cccs1`, the Potency is inactive: > 76.9 µM.
As for `O=C(Nc1ccc2c(c1)CCC2)c1cnccn1`, the Potency is inactive: > 76.9 µM.
On to `CCCCC(CC)Cn1c2nc3ccccc3nc2c2c(=N)oc(C)nc21` (configuration not stated), for which the Potency was inactive: > 76.9 µM.
Turning to `CC(NC(=O)Cc1ccsc1)c1ccc(S(N)(=O)=O)cc1` (configuration not stated), the Potency was inactive: > 76.9 µM.
In the case of `COc1c(F)c(F)c(C(=O)Nc2ccc(NC(=O)c3ccco3)cc2)c(F)c1F`, the Potency is active: 1.52 µM.
The result for `Cc1[nH]c2ccccc2c1C(=O)COC(=O)C1CC(=O)N(Cc2ccco2)C1` (configuration not stated) reads inactive: > 76.9 µM; that for `Cc1cccc(Cn2c(SCCO)nc3c2c(=O)n(C)c(=O)n3C)c1`, inactive: > 76.9 µM; that for `Cc1ccc(NC(=O)C2CCN(C(=O)NC3CCCCC3)CC2)cc1Cl`, inactive: > 76.9 µM.
As for `Cc1cccc(-c2noc(CCC(=O)NCc3ccccc3)n2)c1`, the Potency was inactive: > 76.9 µM.
Next, `CCOc1ccccc1NC(=O)CC1Nc2ccccc2NC1=O` (configuration not stated): inactive: > 76.9 µM.
Next, `O=C(CSC1=NCCS1)Nc1ccccc1F`: inactive: > 76.9 µM.
Consider `CN(CC(=O)Nc1ccncc1)S(=O)(=O)c1ccc(Cl)cc1`, for which the Potency entry is “inactive”.
`Cc1cc(C)n(-c2nc3ccccc3nc2N2CCN(C(=O)c3ccccc3)CC2)n1`: the Potency is inactive: > 76.9 µM.
With `NC(=O)c1c(N)sc(=S)n1CC1CCCO1` (configuration not stated), the Potency was inactive: > 76.9 µM.
`COc1cccc(C(=O)CSc2nnnn2C)c1`: the Potency was inactive: > 76.9 µM.
Take `CC(=O)NCC(=O)NC(C(=O)Nc1ccc2c(c1)OCCO2)c1ccccc1` (configuration not stated): the Potency was inactive: > 76.9 µM.
